Results on 3 substances are retold here after PMC6570896.

Chains of the proteins cited; added tags and fusions are not shown.
UniProt Q9M7Q7: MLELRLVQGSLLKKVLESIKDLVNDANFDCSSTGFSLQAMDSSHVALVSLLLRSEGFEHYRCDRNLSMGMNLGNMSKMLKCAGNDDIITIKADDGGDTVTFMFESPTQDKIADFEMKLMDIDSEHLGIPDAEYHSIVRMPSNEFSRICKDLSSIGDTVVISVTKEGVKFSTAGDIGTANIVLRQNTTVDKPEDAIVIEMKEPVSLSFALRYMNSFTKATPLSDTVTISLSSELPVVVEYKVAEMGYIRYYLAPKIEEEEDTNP
UniProt Q9ZW35: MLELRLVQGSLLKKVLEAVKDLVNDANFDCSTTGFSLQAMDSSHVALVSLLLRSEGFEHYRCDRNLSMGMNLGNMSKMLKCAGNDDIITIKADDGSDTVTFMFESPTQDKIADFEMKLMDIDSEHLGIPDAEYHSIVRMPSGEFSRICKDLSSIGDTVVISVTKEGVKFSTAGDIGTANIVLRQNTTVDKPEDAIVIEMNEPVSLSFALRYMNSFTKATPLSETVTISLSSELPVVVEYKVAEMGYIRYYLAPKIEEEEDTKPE
UniProt P17070: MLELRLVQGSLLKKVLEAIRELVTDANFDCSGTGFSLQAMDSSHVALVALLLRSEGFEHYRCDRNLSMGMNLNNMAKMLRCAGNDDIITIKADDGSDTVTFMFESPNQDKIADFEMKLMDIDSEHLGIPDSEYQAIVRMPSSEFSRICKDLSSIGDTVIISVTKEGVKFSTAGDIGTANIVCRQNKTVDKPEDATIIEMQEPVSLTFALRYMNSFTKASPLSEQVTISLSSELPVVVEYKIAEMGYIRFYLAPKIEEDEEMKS

What all share (experiment): split reporter; BiFC: fusions to YFP^N (1-155 aa) and YFP^C (156-239 aa) co-expressed transiently in Nicotiana benthamiana leaf epidermal cells; YFP seen by confocal microscopy
Experiment [1] concerns the target T1, OsRFC4-YFP^N (rice (Oryza sativa)) (UniProt Q7XRX1).
T1 sequence: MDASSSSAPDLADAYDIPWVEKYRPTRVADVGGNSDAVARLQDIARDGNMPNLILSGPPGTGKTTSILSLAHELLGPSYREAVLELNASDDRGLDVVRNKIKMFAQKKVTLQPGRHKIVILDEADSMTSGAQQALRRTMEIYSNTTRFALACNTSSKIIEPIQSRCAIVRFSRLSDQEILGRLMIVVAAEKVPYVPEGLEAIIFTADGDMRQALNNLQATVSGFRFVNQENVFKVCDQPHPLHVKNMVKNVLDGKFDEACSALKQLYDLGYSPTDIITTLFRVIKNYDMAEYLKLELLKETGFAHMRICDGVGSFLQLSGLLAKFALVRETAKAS

In experiment [2] the target is T2, AtRFC2-YFP^N (Arabidopsis thaliana) (UniProt Q9CAM7).
T2 sequence: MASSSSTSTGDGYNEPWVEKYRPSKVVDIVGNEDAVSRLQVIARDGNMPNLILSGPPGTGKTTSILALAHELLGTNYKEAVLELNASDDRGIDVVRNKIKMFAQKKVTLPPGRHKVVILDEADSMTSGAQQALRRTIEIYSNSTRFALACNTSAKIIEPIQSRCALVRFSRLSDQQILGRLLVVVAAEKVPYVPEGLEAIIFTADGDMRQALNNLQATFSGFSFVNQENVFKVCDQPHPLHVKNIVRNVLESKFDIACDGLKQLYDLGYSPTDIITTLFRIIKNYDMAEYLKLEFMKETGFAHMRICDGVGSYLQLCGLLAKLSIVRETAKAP

Experiment [3] deals with T3, OsRFC5-YFP^N (rice (Oryza sativa)) (UniProt Q852K3).
T3 sequence: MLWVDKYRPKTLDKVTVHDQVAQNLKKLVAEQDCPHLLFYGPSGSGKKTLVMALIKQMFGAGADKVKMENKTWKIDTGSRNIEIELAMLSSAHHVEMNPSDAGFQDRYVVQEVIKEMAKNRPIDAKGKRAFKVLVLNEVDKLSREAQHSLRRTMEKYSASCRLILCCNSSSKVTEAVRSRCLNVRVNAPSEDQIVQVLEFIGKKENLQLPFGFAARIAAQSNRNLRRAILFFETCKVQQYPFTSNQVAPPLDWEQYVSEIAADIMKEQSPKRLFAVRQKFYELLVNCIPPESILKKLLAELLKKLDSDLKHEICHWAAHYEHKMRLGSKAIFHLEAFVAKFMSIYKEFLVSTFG

In experiment [4] the target is T4, AtRFC1-YFP^N (Arabidopsis thaliana) (UniProt Q9C587).
T4 sequence: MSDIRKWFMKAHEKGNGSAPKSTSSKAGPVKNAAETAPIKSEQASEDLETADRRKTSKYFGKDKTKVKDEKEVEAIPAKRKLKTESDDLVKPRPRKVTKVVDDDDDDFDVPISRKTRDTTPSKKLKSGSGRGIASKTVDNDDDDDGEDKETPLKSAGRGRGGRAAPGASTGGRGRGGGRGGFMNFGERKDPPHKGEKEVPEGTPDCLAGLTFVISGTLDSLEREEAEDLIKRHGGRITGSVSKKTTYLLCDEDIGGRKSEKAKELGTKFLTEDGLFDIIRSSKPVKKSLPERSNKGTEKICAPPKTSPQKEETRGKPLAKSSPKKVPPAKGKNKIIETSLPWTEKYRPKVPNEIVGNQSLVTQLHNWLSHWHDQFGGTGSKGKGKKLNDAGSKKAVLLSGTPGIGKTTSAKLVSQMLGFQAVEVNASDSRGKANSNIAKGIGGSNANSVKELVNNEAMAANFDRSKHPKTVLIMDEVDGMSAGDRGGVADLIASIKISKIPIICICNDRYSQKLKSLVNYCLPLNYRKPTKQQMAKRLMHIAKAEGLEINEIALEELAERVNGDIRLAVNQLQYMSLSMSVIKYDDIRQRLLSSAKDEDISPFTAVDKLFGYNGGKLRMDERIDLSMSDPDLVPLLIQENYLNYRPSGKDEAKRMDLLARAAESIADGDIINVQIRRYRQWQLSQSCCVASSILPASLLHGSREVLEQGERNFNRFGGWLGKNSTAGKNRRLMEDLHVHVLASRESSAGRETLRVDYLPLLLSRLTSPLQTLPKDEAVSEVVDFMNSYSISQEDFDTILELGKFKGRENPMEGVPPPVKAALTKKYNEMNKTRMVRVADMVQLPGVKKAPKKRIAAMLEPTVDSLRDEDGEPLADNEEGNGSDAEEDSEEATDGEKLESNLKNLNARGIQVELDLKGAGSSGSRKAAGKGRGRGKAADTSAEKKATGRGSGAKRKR

In experiment [5] the target is T5, OsRFC3-YFP^N (rice (Oryza sativa)) (UniProt Q6YZ54).
T5 sequence: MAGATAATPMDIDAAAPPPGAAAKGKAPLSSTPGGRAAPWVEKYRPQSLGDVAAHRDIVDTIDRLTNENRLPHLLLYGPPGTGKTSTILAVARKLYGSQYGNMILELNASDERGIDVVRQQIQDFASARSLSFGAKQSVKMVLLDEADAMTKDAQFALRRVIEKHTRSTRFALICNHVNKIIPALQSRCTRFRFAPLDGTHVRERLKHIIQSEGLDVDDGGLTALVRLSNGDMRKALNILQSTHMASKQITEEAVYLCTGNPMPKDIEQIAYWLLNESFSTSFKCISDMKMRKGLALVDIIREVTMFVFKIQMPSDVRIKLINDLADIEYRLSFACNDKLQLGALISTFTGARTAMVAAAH

Results are given in words; binding and its absence hold for the method and conditions named. Binding seen in cells or lysates may run through a third protein. Some entries that bind do so weakly or less than the wild type. Tags and fused reporters may be left off the sequences shown.

For “AtPCNA1-YFP^C (from UniProt Q9M7Q7 1-263)”, the binding entry was “binds” in experiment [1]; “binds” in experiment [2]; “binds” in experiment [3]; “no binding” in experiment [4]; “binds” in experiment [5].
For the substance “AtPCNA2-YFP^C (from UniProt Q9ZW35 1-264)”, the binding entry was “binds” in experiment [1]; “binds” in experiment [2]; “binds” in experiment [3]; “no binding” in experiment [4]; “binds” in experiment [5].
Take “OsPCNA-YFP^C (from UniProt P17070 1-263)”: the binding entry in experiment [1] is reported as “binds”; in experiment [2] it was “binds”; in experiment [3], “binds”; in experiment [4], “no binding”; in experiment [5], “binds”.
